In all, about 150,000 compounds went through this assay and about 540 (0.36%) showed an effect of 50% or more. Some of the results follow.

The assay concerns Plasmodium falciparum. In words: Primary screen in NF54 nanoGlo assay, in single point, at 2uM, 72h; a lower Z score goes with more inhibition. The format is functional, Erythrocyte. As to conditions: timepoint 72 hour.
For `NC(=O)[C@H](Cc1ccc(O)cc1)NC(=O)NC1CCCCCCC1`, the “% Inhibition” value is reported as -2% and the Z score was 0.32.
The corresponding values for `CC(C)c1ccccc1NC1CCC2(CC1)CS(=O)(=O)C2` are -5% and 0.97.
The corresponding values for `C=CCOCC(O)CN(Cc1cccc(C)c1)C(C)CC` (centres undefined) are -2% and 0.35.
Consider `O=C(c1ccco1)N(C(=O)c1ccco1)c1ncnc2oc(-c3ccco3)c(-c3ccco3)c12`, for which the “% Inhibition” value is on record as 31% and the Z score was -3.56.
`COC[C@H]1C[C@@H](O)CN1Cc1ncoc1C1CCC1`: the “% Inhibition” value is reported as -8% and the Z score amounted to 1.1.
For the compound `CCc1oc(C(=O)[C@H](C#N)C(=O)Nc2cc(Cl)ccc2C)cc1C`, the “% Inhibition” value is recorded as -6% and the Z score worked out at 1.06.
The like results for `c1cc(-c2nccn2Cc2noc([C@@H]3CCCO3)n2)cc(-n2cccn2)c1` were, in that order, -11% and 1.
The like results for `CCc1cc([C@@H]2CCCN2C(=O)Cc2ccc(F)cc2Cl)on1` were, in that order, 13% and -1.76.
The like results for `O=C(c1ccc2c(c1)C(=O)N(c1nc3ccccc3s1)C2=O)c1ccc2c(c1)C(=O)N(c1nc3ccccc3s1)C2=O` were, in that order, 3% and -0.33.
Take `Cc1nc2cc(C(=O)N3CC[C@H](C(F)(F)F)C3)ccc2c(=O)[nH]1`: the “% Inhibition” value is -16% and the Z score worked out at 1.83.
The like results for `Cc1nc[nH]c1CN1CCc2[nH]cnc2[C@@H]1c1ccsc1` were, in that order, -6% and 0.95.
Regarding `Cc1cc(NC(=O)c2cccc(S(C)(=O)=O)c2)sn1`, the “% Inhibition” value is recorded as -2% and the Z score was found to be 0.18.
The like results for `CCc1nc(N2CCC(CCC(=O)NCc3cccc(Cl)c3)CC2)no1` were, in that order, -10% and 1.96.
The like results for `Cc1cccc(CN(Cc2ccccc2)C(=O)Cn2nccc2[C@H]2CCCNC2)n1` were, in that order, -13% and 1.9.
The corresponding values for `CCC(=O)N[C@@H](C)COc1ccccc1C` are -14% and 1.86.
For `O=C(Nc1nc(-c2ccc3c(c2)OCCO3)cs1)c1cnc2ccccc2n1`, the “% Inhibition” value is listed as -9% and the Z score is on record as 1.4.
The like results for `CCC(C)n1nc(NC(=O)N[C@H]2CCCC[C@@H]2O)cc1C` (some centres undefined) were, in that order, 4% and -0.33.
The like results for `COCCc1nc([C@H]2CCOC2)n(Cc2ccccc2Cl)n1` were, in that order, -14% and 2.34.
The like results for `NC(=O)c1cc2c(nc1-c1cccc3c1OCC3)CCC2` were, in that order, -16% and 1.75.
`COc1cccc(N2N=NC3C(=O)N(c4ccc5c(c4)CCC5)C(=O)C32)c1` (centres undefined): the “% Inhibition” value is -1% and the Z score came out at 0.15.
The like results for `COc1ccc(NC(=O)[C@H](NC(=O)Cc2c[nH]c3ccccc23)c2ccc(C)cc2)cc1` were, in that order, -9% and 1.46.
The corresponding values for `Cc1ccc(S(=O)(=O)NC[C@@H](CO)Cc2cnn(C)c2)cc1` are 3% and -0.28.
The like results for `CCc1ncsc1C(=O)OCC1(C#N)CCOCC1` were, in that order, 34% and -4.54.
As for `COCCn1cnc2cc(NC(=O)C3CCCCC3)cc(C(=O)NC[C@H]3CCCN(C(C)C)C3)c21`, the “% Inhibition” value is recorded as -6% and the Z score was found to be 0.85.
The like results for `Cc1c2ccc3ccccc3c2s[n+]1CCCS(=O)(=O)[O-]` were, in that order, -20% and 3.12.
The corresponding values for `O=C(Nc1ccccc1)Nc1cnc(-n2ccnc2)nc1` are 39% and -2.77.
In the case of `O=C(NC[C@H]1CC12CCCCC2)c1cccc(=O)[nH]1`, the “% Inhibition” value is recorded as -8% and the Z score is 1.32.
Consider `CCc1nnc(CN(C)Cc2cnc(C)cn2)o1`, for which the “% Inhibition” value was -16% and the Z score is given as 1.71.
The like results for `COc1ccc(CN2CC[C@H]2C(=O)NCc2cc(C)on2)cc1` were, in that order, -16% and 1.71.
The like results for `CN(C)CCNC(=O)c1coc(CN2CCC(Cc3ccccc3)CC2)n1` were, in that order, -2% and 0.16.
Take `Cc1ccc(F)cc1NC(=O)Cc1nnc(-c2ccsc2)o1`: the “% Inhibition” value is reported as -15% and the Z score was 1.51.
For the compound `CCOC(=O)[C@H]1CCCN(C(=O)CN2CCN(c3cccc(Cl)c3)C2=O)C1`, the “% Inhibition” value is -3% and the Z score is 0.36.
As for `CC(C)Cn1ccnc1CNc1nccnc1C#N`, the “% Inhibition” value is on record as 5% and the Z score is -0.83.
The like results for `CC(=O)c1sc(CC(=O)NCc2ccco2)nc1C` were, in that order, -10% and 1.12.
The like results for `Cc1oc(-c2cccc(Cl)c2)nc1CNC(=O)NC1CCCCC1` were, in that order, 5% and -0.61.
On to `Cc1ccc2sc(CN3CCN(S(=O)(=O)c4cccnc4)CC3)nc2c1`, for which the “% Inhibition” value is given as -5% and the Z score amounted to 0.55.
The corresponding values for `COc1ccccc1NC(=O)c1cc2c(ccc3ccccc32)o1` are -1% and 0.11.
The like results for `Cc1cc(C)c2c(C)c(C(=O)N3CCOC34CCN(C)CC4)oc2c1` were, in that order, 4% and -0.53.
As to `Cn1ccc2cc([C@@H](O)CNC(=O)N3CCN(S(C)(=O)=O)C3=O)ccc21`, the “% Inhibition” value is on record as -7% and the Z score turned out to be 0.93.
The corresponding values for `O=C(N[C@@H]1COC2(CCCC2)C1)c1ccc(C(F)(F)F)cc1` are -11% and 2.11.
The like results for `CCCN(CCC)S(=O)(=O)N[C@H]1CCC[C@H]1Cn1ccnn1` were, in that order, -2% and 0.41.
The like results for `O=C1CC(C(=O)N2CCO[C@H]3CCC[C@H]32)CN1` (some centres undefined) were, in that order, -13% and 1.81.

A word on the % Inhibition: it is the change of the read-out against control, counted positive when it falls.

For the origin of these results see ChEMBL document CHEMBL4888484, “Replenishing the malaria drug discovery pipeline: Screening and hit evaluation of the MMV Hit Generation Library 1 (HGL1) against asexual blood stage Plasmodium falciparum ,using a nano luciferase reporter read-out” (2022).
